“And” between values parts separate entries of the source, which are not always exact repeats. Equal entries are not always repeated.
Legend:
[1] = Forced-degradation study, SEC-HPLC; type: physicochemical
Experimental: A force-degradation study with lot 021 of wild type hCD83ext stock solution (frozen aliquots in PBS pH 7.6, ˜6 mg CD83/mL) was performed as follows. Several aliquots were thawed and combined. Solutions were prepared as described in the table below:
At the conclusion of the stated exposure time, acidic and basic samples were neutralized. All samples were stored at −20° C. until analyzed using SE-HPLC and isoelectric focusing (IEF) gels.

[2] = pH degradation rate study, SE-HPLC; type: physicochemical
Experimental: To further investigate the role of pH and its influence on protein stability, wild-type hCD83ext (lot 021 in PBS at pH 7.6) was freshly thawed and analyzed (first row of Table 6) or stored at room temperature and 2-8° C., at pH's of 4, 5, 6, 7, 8 and 9. Samples were kept at −70° C. until analyzed, after 1,2, 4 and 10 days of storage. These samples were then analyzed by SEC HPLC (Table 6) or using by SDS-PAGE Bioanalyzer (under reduced and non-reduced conditions; FIGS. 31-35).

[3] = Dark control (wrapped in foil, light chamber 5 days), listed as wild type hCD83ext
[4] = Light 1 day (D65/ID65 light source), listed as wild type hCD83ext
[5] = Light 5 days (D65/ID65 light source), listed as wild type hCD83ext
[6] = Freshly prepared on day of analysis, 0.35 days, listed as wild-type hCD83ext

B1: hCD83ext-wt: recombinant human sCD83 (CD83 extracellular domain) purified from E. coli, wild type form, SEQ ID NO:5 (protein)
chain: GSPGTPEVKVACSEDVDLPCTAPWDPQVPYTVSWVKLLEGGEERMETPQEDHLRGQHYHQKGQNGSFDAPNERPYSLKIRNTTSCNSGTYRCTLQDPDGQRNLSGKVILRVTGCPAQRKEETFKKYRAEI
modifications: Synthetic extracellular domain of human CD83 with the addition of Gly-Ser-Pro-Gly at the N-terminus and Ile at the C-terminus
% AGGREGATE [1, 3]: 36.38% and 35.76%
% FRAGMENTS [1, 3]: 32.25% and 32.89%
% MONOMER [1, 3]: 31.38% and 31.35%
% AGGREGATE [1, 4]: 15.70% and 15.96%
% FRAGMENTS [1, 4]: 38.33%
% MONOMER [1, 4]: 45.88% and 45.71%
% MONOMER ([1]; Light 5 days (D65/ID65 light source)): 27.35%
% AGGREGATE [1, 5]: 35.58% and 35.45%
% FRAGMENTS [1, 5]: 37.07% and 37.20%
% AGGREGATE [2, 6]: 6.31% and 6.32% and 6.76%
% FRAGMENTS [2, 6]: 34.09% and 33.85% and 33.38%
% MONOMER [2, 6]: 59.60% and 59.83% and 59.86%
% AGGREGATE ([2]; pH 4, 2-8 C., 1 day): 4.32%
% FRAGMENTS ([2]; pH 4, 2-8 C., 1 day): 43.05%
% MONOMER ([2]; pH 4, 2-8 C., 1 day): 52.63%
% AGGREGATE ([2]; pH 4, 2-8 C., 10 days): 4.20%
% FRAGMENTS ([2]; pH 4, 2-8 C., 10 days): 44.34%
% MONOMER ([2]; pH 4, 2-8 C., 10 days): 51.46%
% AGGREGATE ([2]; pH 4, RT, 1 day): 0.00%
% FRAGMENTS ([2]; pH 4, RT, 1 day): 47.01%
% MONOMER ([2]; pH 4, RT, 1 day): 52.99%
% AGGREGATE ([2]; pH 4, RT, 10 days): 2.45%
% FRAGMENTS ([2]; pH 4, RT, 10 days): 51.56%
% MONOMER ([2]; pH 4, RT, 10 days): 45.99%
% AGGREGATE ([2]; pH 5, 2-8 C., 1 day): 4.92%
% FRAGMENTS ([2]; pH 5, 2-8 C., 1 day): 42.72%
% MONOMER ([2]; pH 5, 2-8 C., 1 day): 52.36%
% AGGREGATE ([2]; pH 5, 2-8 C., 10 days): 6.97%
% MONOMER ([2]; pH 5, 2-8 C., 10 days): 51.48%
